In PMC5892938:
The list shows a part of the results. At the low end of the ranking the order means little.

Molecular target: GST-SBP-SLBP (stem-loop binding protein) (UniProt Q14493)
Assay: targeted RNA Bind-n-Seq;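 note: DESeq read counts versus GST-SBP nonspecific binding control pulldown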
Conditions: RBNS binding buffer: 25 mM Tris pH 7.5, 150 mM KCl, 3 mM MgCl2, 0.1% Tween, 0.5 mg/mL BSA, 1 mM DTT; 27 nM protein, 750 pM RNA pool; temperature not stated; high values mean tight binding

| Sequence | binding signal (log2 fold change) |
| --- | --- |
| GGUCACGUCUCAAUCAACUCAUGUCCAGGAGUUUACUCCUGUAUUUUCAACAGCUCGCAGUCAAG | -0.213 |
| GGUCACGUCUCAAUCAACUCCAAAGAGGGGGGGAAAACCCCUUUGCCCUCAUUAUCAACAGCUCGCAGUCAAG | -0.299 |
| GGUCACGUCUCAAUCAACUCAUCCUCCAGGGAAAACCCUGGCAAUUUCAACAGCUCGCAGUCAAG | -0.337 |
| GGUCACGUCUCAAUCAACUCAAUCCCAGGAGUUUACUCCUGUAAAGUCAACAGCUCGCAGUCAAG | 0.197 |
| GGUCACGUCUCAAUCAACUCUUCUCCCAGGGAAACCCCUGGCUAUGUCAACAGCUCGCAGUCAAG | 0.0327 |
| GGUCACGUCUCAAUCAACUCUCCAGAGGGGGGGAAAACCCCUUUACCCUCAUACUCAACAGCUCGCAGUCAAG | -0.478 |
| GGUCACGUCUCAAUCAACUCUUUUCCCAGGGAAAUCCCUGGUAAUUUCAACAGCUCGCAGUCAAG | -0.105 |
| GGUCACGUCUCAAUCAACUCUUUUUCAGGAGUUUCCUCCUGCAUACUCAACAGCUCGCAGUCAAG | 0.151 |
| GGUCACGUCUCAAUCAACUCAUCCCCCAGGGAAAACCCUGGCAAUCUCAACAGCUCGCAGUCAAG | -0.0581 |
| GGUCACGUCUCAAUCAACUCAUCCUCCAGGGAAACCCCUGGUUUUCUCAACAGCUCGCAGUCAAG | 0.0442 |
| GGUCACGUCUCAAUCAACUCAAUUCCCAGGGAAAACCCUGGUUAAUUCAACAGCUCGCAGUCAAG | -0.132 |
| GGUCACGUCUCAAUCAACUCAUUCUCCAGGGAAAGCCCUGGUAAUCUCAACAGCUCGCAGUCAAG | -0.0677 |
| GGUCACGUCUCAAUCAACUCAUUUCCAGGAGUUUUCUCCUGUAGUCUCAACAGCUCGCAGUCAAG | 0.0455 |
| GGUCACGUCUCAAUCAACUCAACGCCAGGAGUUUGCUCCUGUAAUUUCAACAGCUCGCAGUCAAG | 0.113 |
| GGUCACGUCUCAAUCAACUCCCCGGAGGGGGGGAAAACCCCUUUACCCUCGUAUUCAACAGCUCGCAGUCAAG | -0.297 |
| GGUCACGUCUCAAUCAACUCAAUCCCAGGAGUUUCCUCCUGUAAUCUCAACAGCUCGCAGUCAAG | -0.0297 |
| GGUCACGUCUCAAUCAACUCAUUUUCCAGGGAAAACCCUGGCUAUCUCAACAGCUCGCAGUCAAG | 0.0199 |
| GGUCACGUCUCAAUCAACUCAUCUCCAGGAGUUUGCUCCUGUAUACUCAACAGCUCGCAGUCAAG | 0.147 |
| GGUCACGUCUCAAUCAACUCAUUCGAGGGGGGGAAAACCCCUUUACCCUCAUUAUCAACAGCUCGCAGUCAAG | 0.0932 |
| GGUCACGUCUCAAUCAACUCCUCAGAGGGGGGGAAAACCCCUUUACCCUCCAUCUCAACAGCUCGCAGUCAAG | 0.0333 |
| GGUCACGUCUCAAUCAACUCAUUCUCAGGAGUUUUCUCCUGCUAUCUCAACAGCUCGCAGUCAAG | -0.0264 |
| GGUCACGUCUCAAUCAACUCUAUUUCCAGGGAAAGCCCUGGCAUGUUCAACAGCUCGCAGUCAAG | 0.211 |
| GGUCACGUCUCAAUCAACUCUUUCCCAGGAGUUUCCUCCUGCAUACUCAACAGCUCGCAGUCAAG | 0.123 |
| GGUCACGUCUCAAUCAACUCUACUCCAGGAGUUUACUCCUGCAUAUUCAACAGCUCGCAGUCAAG | -0.00162 |

| Sequence | binding signal (log2 fold change) |
| --- | --- |
| GGUCACGUCUCAAUCAACUCAAUCUCAGGAGUUUCCUCCUGUUAUCUCAACAGCUCGCAGUCAAG | 0.0969 |
| GGUCACGUCUCAAUCAACUCACUAGAGGGGGGGAAAACCCCUUUACCCUCGUAUUCAACAGCUCGCAGUCAAG | -0.14 |
| GGUCACGUCUCAAUCAACUCAAUUUCCAGGGAAAUCCCUGGCUAUCUCAACAGCUCGCAGUCAAG | -0.0468 |
| GGUCACGUCUCAAUCAACUCAGUUUCAGGAGUUUCCUCCUGCAUUCUCAACAGCUCGCAGUCAAG | 0.256 |
| GGUCACGUCUCAAUCAACUCUUCCUCCAGGGAAAGCCCUGGUAAUUUCAACAGCUCGCAGUCAAG | 0.0815 |
| GGUCACGUCUCAAUCAACUCCCUAGAGGGGGGGAAAACCCCUUUGCCCUCGUUUUCAACAGCUCGCAGUCAAG | 0.0251 |
| GGUCACGUCUCAAUCAACUCUAUUCCAGGAGUUUUCUCCUGUUUUGUCAACAGCUCGCAGUCAAG | -0.0833 |
| GGUCACGUCUCAAUCAACUCAAUUUCAGGAGUUUACUCCUGCUAACUCAACAGCUCGCAGUCAAG | 0.0151 |
| GGUCACGUCUCAAUCAACUCUAUCUCCAGGGAAAUCCCUGGUUUAUUCAACAGCUCGCAGUCAAG | -0.218 |
| GGUCACGUCUCAAUCAACUCAUGUCCAGGAGUUUUCUCCUGUUAUCUCAACAGCUCGCAGUCAAG | -0.11 |
| GGUCACGUCUCAAUCAACUCUUCUUCAGGAGUUUACUCCUGCAAAUUCAACAGCUCGCAGUCAAG | 0.105 |
| GGUCACGUCUCAAUCAACUCAUCGUCCAGGGAAACCCCUGGUAAUUUCAACAGCUCGCAGUCAAG | -0.289 |
| GGUCACGUCUCAAUCAACUCUAUAGAGGGGGGGAAAACCCCUUUACCCUCCGUUUCAACAGCUCGCAGUCAAG | 0.0749 |
| GGUCACGUCUCAAUCAACUCUAUCUCCAGGGAAAACCCUGGUAUUUUCAACAGCUCGCAGUCAAG | 0.0844 |
| GGUCACGUCUCAAUCAACUCAAUCCCAGGAGUUUUCUCCUGUUUACUCAACAGCUCGCAGUCAAG | 0.2 |
| GGUCACGUCUCAAUCAACUCAUCGUCAGGAGUUUCCUCCUGUUUAUUCAACAGCUCGCAGUCAAG | -0.231 |
| GGUCACGUCUCAAUCAACUCAUCCCCCAGGGAAAGCCCUGGCAUUCUCAACAGCUCGCAGUCAAG | -0.00359 |
| GGUCACGUCUCAAUCAACUCAUAAGAGGGGGGGAAAACCCCUUUACCCUCCAACUCAACAGCUCGCAGUCAAG | 0.0729 |
| GGUCACGUCUCAAUCAACUCAUCUUCCAGGGAAAGCCCUGGUUUACUCAACAGCUCGCAGUCAAG | 0.000628 |
| GGUCACGUCUCAAUCAACUCAACUUCAGGAGUUUUCUCCUGUUUUUUCAACAGCUCGCAGUCAAG | -0.121 |
| GGUCACGUCUCAAUCAACUCCUAAGAGGGGGGGAAAACCCCUUUGCCCUCACUAUCAACAGCUCGCAGUCAAG | -0.218 |
| GGUCACGUCUCAAUCAACUCUAGUCCAGGAGUUUACUCCUGUUUUUUCAACAGCUCGCAGUCAAG | -0.279 |
| GGUCACGUCUCAAUCAACUCUAUCUCAGGAGUUUCCUCCUGCAUAUUCAACAGCUCGCAGUCAAG | 0.0598 |
